{"source": "paper PMC10668032", "note": "The other results are listed elsewhere or left out. At the low end of the ranking the order means little.", "data": [{"target": "SIX1 homeodomain (reference allele) (UniProt Q15475)", "assay": "universal protein binding microarray", "settings": "Universal all-10-mer PBM (8x60K, AMADID 030236), 300 nM GST-tagged protein, Alexa Fluor 488 anti-GST; buffer, salt, pH and temperature not stated; high values mean tight binding; most listed sequences are background and not binding sites; double strand, one strand shown", "units": {"binding signal": "E-score"}, "values": [{"sequence": "CCATTGTC", "binding signal": -0.198}, {"sequence": "GACCGCGA", "binding signal": -0.0926}, {"sequence": "TCAGGAGA", "binding signal": 0.0363}, {"sequence": "ATACCCCA", "binding signal": 0.43}, {"sequence": "CCTATTAC", "binding signal": 0.0325}, {"sequence": "AGCTAAAC", "binding signal": -0.217}, {"sequence": "CTGATTGC", "binding signal": -0.0634}, {"sequence": "ATGTTGCA", "binding signal": -0.132}, {"sequence": "ACTGCATC", "binding signal": 0.115}, {"sequence": "GGAGTTTA", "binding signal": -0.135}, {"sequence": "CTCCATGA", "binding signal": -0.0718}, {"sequence": "ACATCGAA", "binding signal": 0.0266}, {"sequence": "CGGCGCTC", "binding signal": -0.1}, {"sequence": "GATTAAGA", "binding signal": 0.0867}, {"sequence": "GGGATTGA", "binding signal": 0.128}, {"sequence": "GAATAATA", "binding signal": 0.226}, {"sequence": "CTGGGGGA", "binding signal": 0.0978}, {"sequence": "ACAGGATG", "binding signal": 0.179}, {"sequence": "ATATACGA", "binding signal": 0.157}, {"sequence": "CTATCCCA", "binding signal": 0.257}, {"sequence": "CACGTAAA", "binding signal": -0.163}, {"sequence": "AAGTAGCG", "binding signal": -0.101}, {"sequence": "GACTGATC", "binding signal": 0.272}, {"sequence": "AGGAGGCG", "binding signal": -0.103}, {"sequence": "ATCTTGTG", "binding signal": 0.166}, {"sequence": "ATGTAAAA", "binding signal": -0.313}, {"sequence": "CGTGATAG", "binding signal": 0.244}, {"sequence": "ACCAGCTA", "binding signal": 0.00338}, {"sequence": "TCTGTAAA", "binding signal": -0.184}, {"sequence": "CACACAAG", "binding signal": -0.154}, {"sequence": "GAATCACC", "binding signal": -0.118}, {"sequence": "ACGTCCTA", "binding signal": -0.103}, {"sequence": "GATTGAGC", "binding signal": 0.0181}, {"sequence": "CTCGTATA", "binding signal": 0.161}, {"sequence": "GTGCGACA", "binding signal": -0.0981}, {"sequence": "CATTACTA", "binding signal": 0.000975}, {"sequence": "CTGACATA", "binding signal": -0.151}, {"sequence": "AGGCGATG", "binding signal": -0.00108}, {"sequence": "TACCTAAA", "binding signal": -0.00297}, {"sequence": "ATGGCTGC", "binding signal": -0.229}, {"sequence": "CATGGACA", "binding signal": -0.158}, {"sequence": "GACACGCA", "binding signal": 0.0451}, {"sequence": "GAGCCCGC", "binding signal": -0.0546}, {"sequence": "GCATACCA", "binding signal": 0.144}, {"sequence": "CCACAAAC", "binding signal": -0.0226}, {"sequence": "ATCCAAAG", "binding signal": 0.0528}, {"sequence": "ACCAAGGG", "binding signal": 0.0408}, {"sequence": "ATGGACAC", "binding signal": 0.0165}, {"sequence": "GCACCGAA", "binding signal": -0.227}, {"sequence": "CTTCGCGA", "binding signal": -0.0983}, {"sequence": "GATATTCC", "binding signal": 0.376}, {"sequence": "GTTTGGCA", "binding signal": -0.261}, {"sequence": "CCTGAAGC", "binding signal": -0.23}, {"sequence": "GTCGTCGA", "binding signal": -0.222}, {"sequence": "TACTACTA", "binding signal": 0.195}, {"sequence": "CCGCGCGA", "binding signal": 0.0377}, {"sequence": "GCTTGCCA", "binding signal": -0.201}, {"sequence": "GCAGGTCA", "binding signal": -0.241}, {"sequence": "GGCGAGTA", "binding signal": 0.011}, {"sequence": "AGGATAAT", "binding signal": 0.295}, {"sequence": "CGGCTAAC", "binding signal": -0.0604}, {"sequence": "AAAGTCGT", "binding signal": -0.277}, {"sequence": "ACAAATCC", "binding signal": 0.16}, {"sequence": "GATGCAGC", "binding signal": -0.151}, {"sequence": "CCACCGCA", "binding signal": -0.0733}, {"sequence": "AAAGTTAG", "binding signal": -0.189}, {"sequence": "CCACTGGA", "binding signal": 0.215}, {"sequence": "ATGACACG", "binding signal": 0.289}, {"sequence": "GTTGTTGA", "binding signal": -0.0896}, {"sequence": "CGTTTACC", "binding signal": 0.068}, {"sequence": "GACAACAA", "binding signal": -0.299}, {"sequence": "TAGAACGA", "binding signal": -0.0488}, {"sequence": "AGCTTTTC", "binding signal": -0.365}, {"sequence": "TCCCTGAA", "binding signal": 0.065}, {"sequence": "CACATTTC", "binding signal": 0.033}, {"sequence": "GATTTACA", "binding signal": -0.113}, {"sequence": "AGACCGCT", "binding signal": -0.112}, {"sequence": "CATCCGAG", "binding signal": 0.137}, {"sequence": "AGTTGAAA", "binding signal": -0.207}, {"sequence": "AAGTGCCT", "binding signal": -0.32}, {"sequence": "CATACGCG", "binding signal": 0.149}, {"sequence": "CTCAAACC", "binding signal": -0.157}, {"sequence": "CCCACCCA", "binding signal": -0.0219}, {"sequence": "GTTCAGCA", "binding signal": -0.0857}, {"sequence": "TATCGGAA", "binding signal": 0.368}, {"sequence": "TTACCTAA", "binding signal": 0.00626}, {"sequence": "ACAATAGT", "binding signal": -0.00197}, {"sequence": "CACTTTGG", "binding signal": -0.093}, {"sequence": "AATTCTTG", "binding signal": -0.202}, {"sequence": "AGCCAGCT", "binding signal": -0.0429}, {"sequence": "CGTCAGCC", "binding signal": 0.00262}, {"sequence": "CCCCCGCG", "binding signal": 0.162}, {"sequence": "TAGATCGA", "binding signal": 0.0916}, {"sequence": "TATAACGA", "binding signal": 0.155}, {"sequence": "GAATCTCA", "binding signal": 0.0523}, {"sequence": "CTCGATGC", "binding signal": -0.0181}, {"sequence": "AGGGCTGG", "binding signal": -0.133}, {"sequence": "AGCATGAT", "binding signal": 0.2}, {"sequence": "CATAGCCA", "binding signal": 0.0457}, {"sequence": "AAGACAGC", "binding signal": -0.193}, {"sequence": "AGCCGCGC", "binding signal": 0.0394}, {"sequence": "CTTACCGA", "binding signal": 0.104}, {"sequence": "CGGTGTCC", "binding signal": 0.352}, {"sequence": "GGTCATCA", "binding signal": 0.0463}, {"sequence": "CAGTATTC", "binding signal": 0.0263}, {"sequence": "AAGGACGT", "binding signal": -0.157}, {"sequence": "ATTCTTCA", "binding signal": -0.0427}, {"sequence": "AGAATAAG", "binding signal": -0.144}, {"sequence": "AAGTGCGC", "binding signal": -0.264}]}]}
